Measurements published in PubChem BioAssay (NCI).
Values joined by “and” are separate entries in the source; they are usually repeats but may differ in a detail not shown here. Identical values can stand only once.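 Dose response: 5 concentrations. Exposure: 48 h. Format: 96-well plates. Endpoint: linear interpolation; highest concentration if not reached. At the GI50, growth is halved. TGI is the concentration that stops growth completely.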 Peptide text beside a SMILES is read from it. * marks the point of attachment. Cbz = O=C(OCc1ccccc1)*; Boc = CC(C)(C)OC(=O)*; OSu = O=C1CCC(=O)N1O*; Bn = c1ccc(C*)cc1

Test system: NCI-H322M lung
Assay: growth of human tumour cells (NCI), 48 h

Row | Structure (SMILES) | TGI | GI50
1 | Clc1ccc(C2=NCON=C2c2ccc(Cl)cc2)cc1 | 44.8 µM | 
2 | COc1ccc(/C=N/Nc2nnc3c(n2)c2ccccc2c2nn(-c4ccccc4Cl)nc23)cc1 | > 100 µM | 
3 | C[C@]12CCC3=NCCN3C1=CC[C@@H]1[C@@H]2CC[C@@]2(C)[C@H]1CC[C@]2(C)O | > 100 µM | 
4 | CC(=O)O[C@H]1C(=O)[C@@]2(C)[C@H]([C@H](OC(=O)c3ccco3)[C@]3(O)C[C@H](OC(=O)[C@H](O)[C@@H](NC(=O)c4ccccc4)c4ccccc4)C(C)=C1C3(C)C)[C@]1(OC(C)=O)CO[C@@H]1C[C@@H]2O | > 25 µM | 
5 | CCOC(=O)C1CCC(=O)N1C(=O)c1ccc(Cl)cc1 (configuration not stated) | > 100 µM | 
6 | [Cl-].[Gd+3].[O-]/N=C(\c1ccccc1)c1ccccn1.[O-]/N=C(\c1ccccc1)c1ccccn1.[O-]/N=C(\c1ccccc1)c1ccccn1 | > 100 µM | 38.7 µM
7 | COc1cccc(N=NN2CCCC2)c1 | > 100 µM | 
8 | CC1(Cl)CC(C)(/C=C/Cl)C(Cl)CC1Cl (configuration not stated) | 36.8 µM | 
9 | Cc1cc(Nc2ccc(Cl)cc2)nc(NCCCNc2ccnc3cc(Cl)ccc23)n1 | 3.02 µM | 1.57 µM
10 | NC(Cc1ccccc1CP(=O)(O)O)C(=O)O (configuration not stated) | > 100 µM | 
11 | CC[C@@]12CCC(=S)N(CCSc3ccccc3)[C@@H]1c1c(n(S(=O)(=O)c3ccc(OC)cc3)c3ccccc13)CC2 | > 100 µM | 
12 | COc1cc(CCc2ccc(OC(C)=O)cc2)cc(OC)c1OC | > 100 µM | 
13 | Cc1nc(Cc2n[nH]c(C)n2)n[nH]1 | > 100 µM | 
14 | CN(C)c1ccc(O[Si](Oc2ccc(N(C)C)cc2)(Oc2ccc(N(C)C)cc2)Oc2ccc(N(C)C)cc2)cc1 | > 100 µM | 
15 | COc1cc2c(cc1OC)C(=O)/C(=C/c1ccc(N(C)C)cc1)CC2 | > 10 µM | 
16 | C/C(=N\NC(=S)N1CCOCC1)c1nc2ncccc2[nH]1 | > 100 µM | 
17 | C[n+]1c(-c2ccc(/C=N/NC(=O)C(=O)N/N=C/c3ccc(-c4cn5ccccc5[n+]4C)cc3)cc2)cn2ccccc21 | > 100 µM | 
18 | COc1cc(N(CCC#N)CCC#N)ccc1/C(N=Nc1ccc(C(=O)O)cc1)=N/NC(=O)c1cc(Br)ccc1O | > 150 µg/mL | 132 µg/mL
19 | COc1ccc(/C(CC2OC(=O)c3ccccc32)=N\NC(N)=O)cc1 (configuration not stated) | > 100 µM | 
20 | CC(C)(C)OC(=O)NC(Cc1ccc(OCc2ccccc2)cc1)C(=O)NC(CCCCNC(=O)OCc1ccccc1)C(=O)NC(CCCCNC(=O)OCc1ccccc1)C(=O)ON1C(=O)CCC1=O (configuration not stated) (Boc-Tyr(Bn)-Lys(Cbz)-Lys(Cbz)-OSu; configuration not given here) | > 100 µM | 
21 | CCc1cc2c(c3c1CCCC3=O)CC1(C2)Cc2cc(CC)c3c(c2C1)C(=O)CCC3 | > 100 µM | 
22 | O=C(C(=O)c1cc(Br)ccc1O)c1cc(Br)ccc1O | 6.74 µM | 2.46 µM
23 | COC(=O)c1sc(=NC(=S)N2CCCCC2)sc1C(=O)OC | > 100 µM | 

Row | Structure (SMILES) | TGI | GI50
24 | OCC(O)C(O)C(O)C(O)c1nn[nH]n1 (configuration not stated) | > 100 µM | 
25 | Nc1ncnc2c1nc(Cl)n2C1OC(CO)C(O)C1O (configuration not stated) | > 100 µM | 
26 | Cc1nc2c(Br)cc(Br)cc2c(=O)n1-c1ccccc1NC1OCC(O)C(O)C1O (configuration not stated) | > 100 µM | 98.9 µM and 38.9 µM
27 | COc1ccc(OC)c2c(=O)c3ccccc3[nH]c12 | > 100 µM | 
28 | O=C1c2ccccc2C(=O)c2sc(Nc3cc(Cl)ccc3Cl)nc21 | 29.8 µM | 
29 | O=S(=O)(O)c1cc(O)c(N=Nc2ccc3ccccc3c2O)c2ccccc12 | > 100 µM | 
30 | CC(=O)[O-].[Mn+3].[O-]c1ccc(Cl)cc1C=NCCN=Cc1cc(Cl)ccc1[O-] | > 100 µM | > 100 µM
31 | CC1=C(CNO)C2=C(C)C3(CC3)[C@@](C)(O)C(=O)C2=C1 | 5.46 µM | 1.32 µM
32 | O=C(O)Cn1ccc(=O)c2cc([N+](=O)[O-])ccc21 | > 100 µM | 
33 | COC(=O)C(=O)C(C(=O)C(=O)Nc1ccc(C)c(C)c1)c1nc2ccc([N+](=O)[O-])cc2[nH]c1=O (configuration not stated) | > 100 µM | 
34 | O=c1[nH]c2ccc([N+](=O)[O-])c(Cl)c2c2ccccc12 | 21.3 µM | 
35 | CCCCCCCCCCCCCCC(C)CCC(=O)O (configuration not stated) | > 100 µM | 
36 | O=C1C2CC[C@@H]3C(=O)C(Cl)(Cl)[C@@H]3CCC2C1(Cl)Cl (some centres not stated) | 85.7 µM | 
37 | O=C(NCc1ccccc1Cl)c1c(O)c2ccccc2[nH]c1=O | > 100 µM | 
38 | O=C1C=C/C(=C/[C@H]2SSC=C[C@]23C=CC(=O)C3)C1 | > 85.1 µM | 
39 | CNCc1ccc(-c2[nH]c3cc(F)cc4c3c2CCNC4=O)cc1 | > 87.6 µM | 25.2 µM
40 | COc1cc(/C=C\c2cc(OC)c(OC)c(OC)c2)cc(NS(=O)(=O)c2ccc(Cl)cc2)c1OC | > 100 µM | 0.759 µM
41 | CC(=O)[C@]1(O)Cc2c(O)c3c(c(O)c2[C@@H](OC2CC(N)C(O)C(C)O2)C1)C(=O)c1c(OCc2ccccc2)cccc1C3=O (some centres not stated) | 8.22 µM | 
42 | c1ccc2c3c([nH]c2c1)C1C2CCCCN2C(c2ccncc2)N1CC3 (configuration not stated) | > 100 µM | 
43 | O=C(N/N=C/c1ccc(F)cc1)c1ccc(C(F)(F)F)nc1Nc1cccc(C(F)(F)F)c1 | 3.79 µM | 0.633 µM
44 | NC(N)=N/N=C/c1c(-c2ccc(Cl)c([N+](=O)[O-])c2)nc2sc3ccccc3n12 | 1.81 µM | 0.762 µM
45 | Nc1ncc(C2[C@H](CNC(=O)c3cc(Br)c[nH]3)C(CNC(=O)c3cc(Br)c[nH]3)[C@@H]2c2cnc(N)[nH]2)[nH]1 (some centres not stated) | > 50 µM | > 50 µM
